From the supplement of paper PMC8948288
The sequences are guide strands of siRNAs; only the seed at positions 2 to 7 varies.

Legend:
GL261 = test: cell viability relative to siNT1 (ATP content); H4 human neuroglioma and GL261 mouse glioma; higher = less toxic; conditions: siRNA concentration 25 nM; 96 h; mouse
Procedure: (§1)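 Arrayed screen of all 4096 6mer seeds. Each seed sits at guide-strand positions 2-7 of a neutral 19mer siRNA backbone (siNT1-based, passenger strand 2'-O-methyl modified at positions 1-2 to block RISC loading, 3' DNA overhangs). The guide strand is built here as U + seed + ACAUGUAAACCA. Cells were reverse transfected in triplicate in 384-well plates (H4 at 10 nM, GL261 at 25 nM) with Lipofectamine RNAiMAX. Viability was read as ATP content (CellTiter-Glo) 96 h after transfection and normalised to siNT1 (%).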

H4 = test: as above; conditions: siRNA concentration 10 nM; 96 h; human
Procedure: as §1
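Note: cells reverse transfected with siRNA duplexes via lipid reagent, ATP read by luminescence, triplicate wells, values scaled to mean viability with non-targeting control siNT1.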

| Sequence | cell viability (GL261) | cell viability (H4) |
| --- | --- | --- |
| UAAUUUUACAUGUAAACCA | 50.9% | 83.3% |
| UACAAAAACAUGUAAACCA | 67.9% | 83.1% |
| UACAAACACAUGUAAACCA | 50.8% | 83.8% |
| UACAAAGACAUGUAAACCA | 57.4% | 83.5% |
| UACAAAUACAUGUAAACCA | 65.9% | 84.6% |
| UACAACAACAUGUAAACCA | 62.4% | 82.1% |
| UACAACCACAUGUAAACCA | 26.5% | 26.2% |
| UACAACGACAUGUAAACCA | 62.4% | 92.9% |
| UACAACUACAUGUAAACCA | 38.9% | 62.9% |
| UACAAGAACAUGUAAACCA | 61.5% | 88.3% |
| UACAAGCACAUGUAAACCA | 39% | 69.4% |
| UACAAGGACAUGUAAACCA | 52.6% | 56.5% |
| UACAAGUACAUGUAAACCA | 50.7% | 74.6% |
| UACAAUAACAUGUAAACCA | 60.8% | 106% |
| UACAAUCACAUGUAAACCA | 52.2% | 42.9% |
| UACAAUGACAUGUAAACCA | 72.5% | 81.7% |
| UACAAUUACAUGUAAACCA | 51.3% | 85.4% |
| UACACAAACAUGUAAACCA | 47.8% | 76.2% |
| UACACACACAUGUAAACCA | 44.5% | 77.1% |

| Sequence | cell viability (GL261) | cell viability (H4) |
| --- | --- | --- |
| UACACAGACAUGUAAACCA | 47.1% | 67.1% |
| UACACAUACAUGUAAACCA | 48.4% | 105% |
| UACACCAACAUGUAAACCA | 48.7% | 63.8% |
| UACACCCACAUGUAAACCA | 32.2% | 65.6% |
| UACACCGACAUGUAAACCA | 63.3% | 77.2% |
| UACACCUACAUGUAAACCA | 40.9% | 36.7% |
| UACACGAACAUGUAAACCA | 61.6% | 87% |
| UACACGCACAUGUAAACCA | 30.3% | 37.7% |
| UACACGGACAUGUAAACCA | 39.7% | 65.3% |
| UACACGUACAUGUAAACCA | 60.4% | 80.2% |
| UACACUAACAUGUAAACCA | 60.2% | 93.4% |
| UACACUCACAUGUAAACCA | 34.4% | 67.1% |
| UACACUGACAUGUAAACCA | 66.4% | 77.7% |
| UACACUUACAUGUAAACCA | 54% | 89.5% |
| UACAGAAACAUGUAAACCA | 63.8% | 85.6% |
| UACAGACACAUGUAAACCA | 19.3% | 41.7% |
| UACAGAGACAUGUAAACCA | 64.5% | 105% |
| UACAGAUACAUGUAAACCA | 50.5% | 47.6% |
| UACAGCAACAUGUAAACCA | 46.6% | 79.2% |

| Sequence | cell viability (GL261) | cell viability (H4) |
| --- | --- | --- |
| UACAGCCACAUGUAAACCA | 11.6% | 52.3% |
| UACAGCGACAUGUAAACCA | 55.3% | 88.8% |
| UACAGCUACAUGUAAACCA | 23.9% | 57.1% |
| UACAGGAACAUGUAAACCA | 69.4% | 78.7% |
| UACAGGCACAUGUAAACCA | 21.7% | 31.4% |
| UACAGGGACAUGUAAACCA | 48.4% | 65.5% |
| UACAGGUACAUGUAAACCA | 53.1% | 58.5% |
| UACAGUAACAUGUAAACCA | 83% | 90.8% |
| UACAGUCACAUGUAAACCA | 26.5% | 58.9% |
| UACAGUGACAUGUAAACCA | 67.8% | 76.4% |
| UACAGUUACAUGUAAACCA | 55.8% | 87.7% |
| UACAUAAACAUGUAAACCA | 62% | 97.2% |
| UACAUACACAUGUAAACCA | 49% | 56.1% |
| UACAUAGACAUGUAAACCA | 62% | 83.3% |
| UACAUAUACAUGUAAACCA | 68.3% | 81.6% |
| UACAUCAACAUGUAAACCA | 63.4% | 87.1% |
| UACAUCCACAUGUAAACCA | 33.3% | 28.5% |
| UACAUCGACAUGUAAACCA | 60.2% | 102% |
| UACAUCUACAUGUAAACCA | 30.3% | 76.1% |
